Measurements published in the supplement of paper PMC4723716.
± gives the uncertainty stated by the source. Over roughly 9,900 compounds, “viability index relative to DMSO control” has its median near 1; the lowest 2% begin near 0.85. This is one part of the list.

Tested on: Plasmodium falciparum NF54 stage V gametocytes
Experiment: viability index relative to DMSO control (fraction); higher = less gametocyte killing
Conditions: 2.5 µM, library set: Broad Institute DOS, incubation time: 72 h
In short: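 P. falciparum NF54 stage V gametocytes in serum-free screening medium (0.75% gametocytemia, 1.25% hematocrit, 10 µl) were incubated with compound at 2.5 µM in 1,536-well plates for 72 hr at 37°C under low oxygen. Then 3 µl of 2.5 µM MitoTracker Red CMXRos plus 0.13% saponin was added for one to two hours. One field per well was imaged, 20–70 µm2 red particles were counted, and the viability index was the count divided by the plate mean of DMSO wells.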

In order of falling viability index:
1. CN(C)CC(=O)N1[C@H](C#N)[C@@H](c2ccccc2-c2ccccc2F)[C@H]1CO  1.16 ± 0.031
2. Cc1cccc(S(=O)(=O)N[C@H]2CC[C@H](CCNC(=O)Nc3cc(F)ccc3F)O[C@@H]2CO)c1  1.14 ± 0.13
3. Cc1cc(C(=O)Nc2ccc3c(c2)C(=O)N(C)[C@H]2CC[C@H](CC(=O)NCc4ccc(-c5ccccc5)cc4)O[C@@H]2CO3)no1  1.13 ± 0.14
4. COCC(=O)N1C[C@@]2(C1)CN(Cc1cccc(F)c1)[C@H](CO)c1c2c2ccc(OC)cc2n1C  1.1273 ± 0.00085
5. C[C@H]1CCCCO[C@@H](CN(C)C(=O)Nc2ccc(C(F)(F)F)cc2)[C@@H](C)CN([C@@H](C)CO)C(=O)c2cc(NS(=O)(=O)c3cn(C)cn3)ccc2O1  1.11 ± 0.042
6. C[C@@H]1CCCCO[C@H](CN(C)CC2CCCCC2)[C@H](C)CN([C@H](C)CO)C(=O)c2cc(NS(C)(=O)=O)ccc2O1  1.1075 ± 0.00055
7. O=C(c1ccccn1)N1CC2(C1)[C@H](c1ccccc1)[C@H](CO)N2C(=O)C1CCCCC1  1.1 ± 0.094
8. O=C(NC1Cc2ccccc2C1)[C@@H]1N[C@@H]2c3cccc(=O)n3C[C@@H]2[C@H]1CO  1.09 ± 0.11
9. CN(C)C(=O)C[C@@H]1CC[C@H]2[C@@H](COC[C@H](O)CN2C(=O)C2CCOCC2)O1  1.08 ± 0.039
10. O=C(C[C@@H]1CC[C@@H]2[C@H](COC[C@@H](O)CN2C(=O)Nc2ccc(F)cc2)O1)NC1CCC1  1.07 ± 0.016
11. C[C@H](NC(=O)[C@H]1[C@H](CO)[C@H]2Cn3c(ccc(-c4ccccc4F)c3=O)[C@@H]1N2)c1ccccc1  1.07 ± 0.055
12. CCCC(=O)Nc1ccc2c(c1)OC[C@@H](C)N(S(=O)(=O)c1cn(C)cn1)C[C@H](C)[C@@H](OC)CN(C)C2=O  1.07 ± 0.024
13. CCCNC(=O)N1CC[C@@]2(CC1)CN([C@@H](CO)c1c2c2ccc(OC)cc2n1C)C(=O)CC1CC1  1.06 ± 0.074
14. CS(=O)(=O)N1[C@@H](C#N)[C@@H](c2ccccc2-c2ccccc2F)[C@@H]1CO  1.06 ± 0.14
15. C[C@@H]1CCCCO[C@H](CN(C)C(=O)CCCN(C)C)[C@H](C)CN([C@@H](C)CO)C(=O)c2cc(NS(=O)(=O)c3ccc(Cl)cc3)ccc2O1  1.06 ± 0.021
16. CC(C)C#Cc1ccc([C@H]2[C@H]3CN(S(=O)(=O)c4ccccc4)CC(=O)N3[C@H]2CO)cc1  1.06 ± 0.086
17. COCC#Cc1ccc2c(c1)O[C@H](CN(C)C(=O)C1CCOCC1)[C@H](C)CN([C@H](C)CO)S2(=O)=O  1.06 ± 0.035
18. COc1ccc2c3c([C@H](CO)N(Cc4ccccn4)C[C@]33CN(Cc4ccccn4)C3)n(C)c2c1  1.048 ± 0.0033
19. O=C(NC[C@@H]1[C@@H](c2ccccc2)[C@@H](CO)N1C(=O)C1CCC1)NC1CCCC1  1.05 ± 0.054
20. C[C@@H]1CCCCO[C@H](CN(C)C(=O)Nc2ccc(C(F)(F)F)cc2)[C@@H](C)CN([C@H](C)CO)C(=O)c2cc(NS(=O)(=O)c3cn(C)cn3)ccc2O1  1.053 ± 0.004
21. C[C@H](CO)N1C[C@H](C)[C@H](CN(C)C(=O)Cc2ccccc2)OCCCC[C@H](C)Oc2ccc(NS(C)(=O)=O)cc2C1=O  1.05 ± 0.042
22. COc1cccc(C(=O)Nc2ccc3c(c2)C(=O)N(C)[C@H]2CC[C@@H](CC(=O)N[C@H](C)c4ccccc4)O[C@H]2CO3)c1  1.04 ± 0.077
23. CCC(=O)N1[C@H](CO)[C@H]2c3ccccc3N(C(=O)Nc3ccc(Cl)cc3)C[C@H]21  1.04 ± 0.088
24. Cc1noc(C)c1S(=O)(=O)Nc1cccc2c1O[C@H](CN(C)Cc1ccc(C(F)(F)F)cc1)[C@H](C)CN([C@H](C)CO)C2=O  1.04 ± 0.023
25. CO[C@H]1CN(C)C(=O)c2cc(NS(=O)(=O)CC(F)(F)F)ccc2OC[C@H](C)NC[C@@H]1C  1.03 ± 0.046
26. C[C@H]1CCCCO[C@H](CN(C)Cc2ccc3c(c2)OCO3)[C@@H](C)CN([C@@H](C)CO)C(=O)c2cc(NS(=O)(=O)c3cn(C)cn3)ccc2O1  1.029 ± 0.0079
27. CNC(=O)C[C@@H]1CC[C@@H]2[C@@H](COc3ccc(NS(=O)(=O)c4ccc(F)cc4)cc3C(=O)N2C)O1  1.0217 ± 0.00016
28. COc1ccccc1CNC(=O)C[C@H]1C=C[C@H](NC(=O)CC2CC2)[C@H](CO)O1  1.02 ± 0.13
29. O=C(Cc1ccccc1)N1C[C@@H]2[C@H](c3ccccc31)[C@@H](CO)N2S(=O)(=O)c1ccccc1  1.01 ± 0.043
30. COc1ccc(S(=O)(=O)Nc2ccc3c(c2)C(=O)N([C@H](C)CO)C[C@@H](C)[C@@H](CN(C)Cc2ccc(C(F)(F)F)cc2)OCCCC[C@H](C)O3)cc1  1 ± 0.11
31. C/C=C/c1ccc([C@H]2[C@@H](CO)N(C(=O)CC)[C@H]2CN(C)Cc2cncnc2)cc1  0.9998 ± 0.0083
32. O=C(N[C@@H]1C=C[C@H](CC(=O)N2CCC(Cc3ccccc3)CC2)O[C@@H]1CO)c1cnccn1  0.991 ± 0.1
33. C[C@H]1CN([C@@H](C)CO)C(=O)CCCn2cc(nn2)CO[C@@H]1CN(C)C(=O)Nc1cccc(C(F)(F)F)c1  0.982 ± 0.018
34. COc1cccc(NC(=O)N2CC(=O)N3[C@H](CO)[C@H](c4ccc(C#CCC5CCCC5)cc4)[C@H]3C2)c1  0.9813 ± 0.0041
35. COc1ccc(S(=O)(=O)Nc2ccc3c(c2)C(=O)N([C@@H](C)CO)C[C@@H](C)[C@H](CN(C)Cc2ccc(C(F)(F)F)cc2)OCCCC[C@@H](C)O3)cc1  0.974 ± 0.12
36. COc1ccc(CN(C)C[C@H]2OCc3cnnn3CCCC(=O)N([C@H](C)CO)C[C@@H]2C)cc1  0.971 ± 0.023
37. C[C@H](CO)N1C[C@H](C)[C@@H](CN(C)C(=O)NC2CCCCC2)OCc2ccccc2-c2c(n(C)c3ccccc23)C1=O  0.967 ± 0.086
38. CN1C(=O)c2cc(NC(=O)CC(F)(F)F)ccc2OC[C@H]2O[C@@H](CC(=O)NC3CCC3)CC[C@@H]21  0.965 ± 0.098
39. CCS(=O)(=O)N1CCCCN2[C@H](C1)[C@@H](c1ccc(C#Cc3ccccn3)cc1)[C@@H]2CO  0.954 ± 0.026
40. CCCNC(=O)N[C@H]1C=C[C@@H](CC(=O)N2CCN(C)CC2)O[C@H]1CO  0.945 ± 0.029
41. CCCNC(=O)N1[C@H](C#N)[C@@H](c2ccccc2-c2ccccc2F)[C@H]1CO  0.928 ± 0.022
42. O=C(C[C@@H]1CC[C@@H]2[C@H](COC[C@H](O)CN2Cc2cc(F)cc(F)c2)O1)Nc1nccs1  0.919 ± 0.096
43. Cc1ccc(S(=O)(=O)N(C)C[C@H]2Oc3cc(C#CC4CCCC4)ccc3S(=O)(=O)N([C@@H](C)CO)C[C@@H]2C)cc1  0.705 ± 0.12
